Each structure is given as a SMILES string. About 4,300 (8.3%) of roughly 52,000 compounds were called active. Cut-off read from the data, not from the text of the source: active = survival mostly below about 52% (no sharp cut-off); inactive = mostly above about 56%. This is one part of the list.

This assay concerns DeltatarO mutant. The assay can be described thus: growth inhibition of S. aureus wild type versus tarO mutant, primary screen, teichoic acid synthesis inhibitors, RN4220, OD600 (AID 463173). Conditions: OD600, 18 h, active compounds read low, screened at 18.75 µg/mL (by protocol).
As to `COc1cc(C)nc(N(C)S(=O)(=O)c2ccccc2)n1`, the survival was inactive: 97%.
Consider `CSc1nnc(COc2cccc(C)c2)n1C`, for which the survival was inactive: 77%.
On to `Cc1ccc(Sc2ccc(N3CCCC(C(=O)Nc4ccc(Br)cc4)C3)nn2)cc1` (stereo unspecified), for which the survival is inactive: 50%.
Consider `Cc1nc2ccn(Cc3cccnc3)c(=O)c2cc1C(=O)N1CCN(c2ccccc2F)CC1`, for which the survival was inactive: 69%.
Take `O=C(NCCc1ccc(Cl)cc1)c1cc(-c2ccccc2)n[nH]1`: the survival is inactive: 85%.
Then `COc1ccc(SCc2cc(=O)c3ccc(C)c(C)c3[nH]2)cc1`, with inactive: 77%; and `CCCCOc1ccc(C(=O)NCC(c2ccc(Cl)cc2)N2CCOCC2)cc1` (stereo unspecified), with inactive: 55%.
Under `CCN(CC)c1ccc(NC(=O)Cn2ncc3c(C)n(Cc4ccccc4F)c(C)c3c2=O)c(C)c1` stands inactive: 79%; under `COc1ccc(/C=C/C(=O)Nc2ccc(C)cc2)cc1`, inactive: 77%.
`CCOC(=O)c1ccc(N2C(=O)c3n[nH]c(-c4ccco4)c3C2c2ccc(OC)cc2OC)cc1` (stereo unspecified): the survival was inactive: 89%.
In the case of `CC1CC(C)N(C(=O)c2cc(-c3ccccc3)on2)C(C)C1` (stereo unspecified), the survival is inactive: 108%.
As to `CC1CN(C(=O)Nc2ccc(C(=O)NCc3ccccc3F)cc2)c2ccccc2S1` (stereo unspecified), the survival is inactive: 88%.
Turning to `Fc1ccccc1N1CCN(Cc2nnc(-c3ccc4c(c3)OCO4)o2)CC1`, the survival is inactive: 85%.
As for `Cc1ccccc1OCC(=O)Nc1ccc2oc(-c3ccc(F)cc3)nc2c1`, the survival is inactive: 140%.
Then `Cc1ccc(S(=O)(=O)N2Cc3ccccc3CC2C(=O)N(C)C)cc1` (stereo unspecified), with inactive: 70%; and `Cc1ccc(C)c(N2C(=O)N(Cc3ccccc3C)c3ccccc3S2(=O)=O)c1`, with inactive: 86%; and `O=C(Nc1ccc(Oc2ccccc2)cc1)c1ccc(F)c(S(=O)(=O)N2CCN(c3cccc(Cl)c3)CC2)c1`, with inactive: 101%.
On to `COC(=O)c1nnn(-c2cccc(C)c2)c1N`, for which the survival is inactive: 83%.
Then `CC(C)Oc1ccc(CNC(=O)CN2C(=O)CCn3nc(-c4cn(C)c5ccccc45)cc32)cc1`, with inactive: 118%.
Consider `COc1ccc(-n2c(SCc3nc(-c4ccc(C)cc4)no3)nnc2-c2ccccc2)cc1`, for which the survival is inactive: 60%.
Under `N#C/C(=C/c1ccc(-c2ccc(S(N)(=O)=O)cc2)o1)C(=O)Nc1cc(Cl)ccc1Cl` stands inactive: 46%; under `CCC(=O)Nc1nnc(CC(=O)N/N=C/c2ccc(O)cc2)s1`, inactive: 73%; under `CCOC(=O)c1ccc(NC(=O)CN(Cc2ccc(C)cc2)S(=O)(=O)c2ccc(C)cc2)cc1`, inactive: 58%.
Consider `CCOc1ccc2[nH]c(=O)c(CNCCCO)cc2c1`, for which the survival is inactive: 95%.
On to `O=c1c2cnn(-c3ccc(F)cc3)c2ncn1Cc1ccc(F)cc1`, for which the survival was inactive: 106%.
As for `COc1ccc(Cl)cc1NC(=O)Cn1cc2c(n1)CCC(C)C2` (stereo unspecified), the survival was inactive: 91%.
With `CSc1nnc2[nH]c(=O)cc(C)n12`, the survival was inactive: 69%.
With `Cc1cc(-c2ccc(S(=O)(=O)Nc3ccc(Br)c(C)c3)s2)on1`, the survival is inactive: 88%.
Then `COc1ccc(-c2cc(C(F)(F)F)nc(S(=O)(=O)CCC(=O)NCc3cccnc3)n2)cc1`, with inactive: 98%; and `CSc1nc(NC(C)=O)nc(C)c1Br`, with inactive: 103%; and `COc1ccc(CNC(=O)C2Cc3cc(S(=O)(=O)N4CCCCCC4)ccc3N2C(C)=O)cc1` (stereo unspecified), with inactive: 92%.
As for `O=S(=O)(c1ccc2nc(N3CCN(c4ccccc4)CC3)ccc2c1)N1CCCCC1`, the survival is active: 6%.
Regarding `COc1ccc(-c2noc(-c3cccc(OC)c3OC)n2)cc1`, the survival was active: 8%.
With `Cc1cccc(NC(=O)CSc2nc3c(oc4ccccc43)c(=O)n2-c2ccc(F)cc2)c1`, the survival was inactive: 72%.
Consider `COc1ccc(Nc2cc(C(=O)NCc3ccccc3)c3ccccc3n2)c(OC)c1`, for which the survival was inactive: 98%.
Take `CCOc1ccc(-c2cn3c(n2)sc2cc(C(=O)NC4CCCc5ccccc54)ccc23)cc1` (stereo unspecified): the survival is inactive: 84%.
With `Cc1ccc(NC(=O)CC(C)S(=O)(=O)c2ccc3c(c2)NC(=O)CO3)cc1C` (stereo unspecified), the survival was inactive: 85%.
For the compound `COc1ccc(NC(=O)c2cn3c4c(ccc(Cl)c4c2=O)OC(C)C3)cc1OC` (stereo unspecified), the survival was inactive: 102%.
Under `CSc1ncc(C(=O)Nc2ccc(C(C)=O)cc2)c(-c2ccccc2)n1` stands inactive: 92%; under `O=C(NCC1CCCO1)c1cccc2ccccc12` (stereo unspecified), inactive: 73%.
As to `CN(C)c1ccc(-c2nnn(CC(=O)N(C)C3CCCCC3)n2)cc1`, the survival is inactive: 82%.
Under `CCOc1ccc2nc(NC(=O)c3cc(=O)c4cc(C)cc(C)c4o3)sc2c1` stands inactive: 85%.
Then `CCOC(=O)C1CCN(CCC(=O)Nc2ccc(OC)cc2)CC1`, with inactive: 55%; and `COc1cc2cc(CN(Cc3ccc4c(c3)OCO4)C(=O)NCc3ccccc3)c(=O)[nH]c2cc1OC`, with inactive: 102%; and `COc1cc(C(=O)N2CC(=O)Nc3ccc(C)cc3C2c2ccc(F)cc2)cc(OC)c1OC` (stereo unspecified), with inactive: 188%.
Regarding `Cc1nc(N2CCOCC2)c2c(C(=O)N3CCN(c4cccc(C)c4C)CC3)c(C)oc2n1`, the survival was inactive: 144%.
`COc1ccc(CNC(=O)c2ccc(-c3nc(CSc4ccccc4)c(C)o3)cc2)c(OC)c1`: the survival is inactive: 85%.
Regarding `O=C(NC1CCCC1)C1CCCN(S(=O)(=O)c2ccc(-n3cnnn3)cc2)C1` (stereo unspecified), the survival was inactive: 72%.
Take `CCc1ccc(NC(=O)c2cc3c([nH]c2=O)CC(C)(C)CC3=O)cc1`: the survival is inactive: 78%.
As to `CCOc1ccc2oc(=O)cc(CN3CCN(c4ccccc4)CC3)c2c1`, the survival was inactive: 83%.
Turning to `N#Cc1c[nH]n2c(NC3CCCCC3)c(-c3cccc(Cl)c3)nc12`, the survival was inactive: 50%.
Take `COc1ccc(CCN2C(=O)N(c3ccccc3)C(=O)C2CC(=O)Nc2ccccc2)cc1` (stereo unspecified): the survival was inactive: 71%.
Turning to `Cc1ccc(-c2nc(C)c(CCNC(=O)C(=O)Nc3ccc4c(c3)OCO4)s2)cc1`, the survival was inactive: 84%.
Then `CCCOc1ccc(C2c3c(oc4ccccc4c3=O)C(=O)N2c2nc(C)c(C(=O)OCC)s2)cc1` (stereo unspecified), with inactive: 60%; and `COc1ccc(S(=O)(=O)NCc2ccc(C(=O)NCc3ccccc3)cc2)cc1`, with inactive: 85%; and `Cc1cc(C)c(NC(=O)CCC(=O)N2Cc3ccccc3Oc3ncccc32)c(C)c1`, with inactive: 78%.
In the case of `O=C1CC(NNc2ccccc2)C(=O)N1c1cccc(Cl)c1` (stereo unspecified), the survival is inactive: 49%.
Under `COC(=O)c1ccccc1NC(=O)Cn1c(=O)n(CCCC(=O)NCCc2ccc(OC)c(OC)c2)c(=O)c2ccccc21` stands inactive: 106%; under `Cc1ccc(C)c(NC(=O)NCc2ccc3c(c2)CCN3C(=O)c2ccccc2)c1`, inactive: 55%.
Take `CCCC(=O)Oc1ccc2ccc(=O)oc2c1`: the survival is inactive: 89%.
Under `Cc1ccc(N=C2CCCN2Cc2ccccc2)c(C#N)c1` stands inactive: 98%; under `Cc1ccc2c(c1)-c1c(cnn1CC(=O)N1CCN(c3cc(Cl)ccc3C)CC1)CO2`, inactive: 49%; under `CC(C)C(NS(=O)(=O)c1cccc2cccnc12)C(=O)Nc1ccc(OC(F)(F)F)cc1` (stereo unspecified), inactive: 85%.
`O=C(c1ccccc1)c1ccc2nc(Nc3cc(Cl)ccc3O)c3nncn3c2c1`: the survival is inactive: 118%.
Take `COC(=O)C[N+]1(Cc2ccco2)CCCCC1`: the survival was inactive: 107%.
Consider `O=C1C=CC(=O)N1c1ccccc1F`, for which the survival is inactive: 77%.
Under `CC(=O)c1ccc(N2CCN(C(=O)c3ccc(Cn4c(=O)[nH]c5ccccc5c4=O)cc3)CC2)cc1` stands inactive: 100%; under `CCN1CCC(N(Cc2ccc(F)cc2)C(=O)Nc2cc(Cl)ccc2C(=O)OC)CC1`, inactive: 85%; under `CC(C)c1ccc(NC(=O)C2(C)Cc3ccccc3C(=O)O2)cc1` (stereo unspecified), inactive: 106%.
For the compound `COc1ccc(-n2c(/C=C/c3c(C)[nH]c4ccccc34)nc3ccccc3c2=O)cc1`, the survival is inactive: 168%.
As to `Cc1nn(C)c2c1c(-c1ccccc1)cc(=O)n2Cc1ccc(Cl)cc1`, the survival is inactive: 87%.
Under `O=C(NC1CC1)C1CCCN1S(=O)(=O)c1ccccc1` (stereo unspecified) stands inactive: 78%; under `COc1cccc(CNc2nccn(-c3ccc(OC)c(OC)c3)c2=O)c1`, inactive: 99%; under `COc1ccccc1C(=O)Nc1ccc(OCc2cc(=O)n3ccc(C)cc3n2)cc1`, inactive: 89%.
Then `CCOc1ccc(S(=O)(=O)N2CCC(N3CCN(Cc4ccc(C)cc4)C(=O)C3=O)CC2)cc1`, with inactive: 77%; and `CC1=C(C(=O)OC(C)C)C(C)C(C(=O)OC(C)C)=C(C)N1`, with inactive: 79%.
Under `COc1cccc(CN2C(=O)CN(C3CCCCC3)C(=O)C2c2ccc(OC)c(OC)c2)c1` (stereo unspecified) stands inactive: 67%; under `CCOc1ccc(CNC(=O)C2CCN(S(=O)(=O)c3cn(C)cn3)CC2)cc1OC`, inactive: 71%.
As for `COc1ccc2c(c1)c1c(c(=O)n(-c3ccccc3C)c(=O)n1CC(=O)N1CCCC1)n2C`, the survival is inactive: 117%.
Under `COc1ccc(-c2cc(C(F)(F)F)c(C#N)c(SCC(=O)Nc3ccccc3F)n2)cc1` stands inactive: 67%.
For the compound `CCC(C)Sc1c(C(C)C)cnc2c1c(=O)n(C)c(=O)n2C` (stereo unspecified), the survival is inactive: 100%.
Regarding `CCc1nnc(NC(=O)CCC(=O)N2CCC(O)CC2)s1`, the survival was inactive: 88%.
Under `COc1ccc(-c2nc3scc(CCNC(=O)c4cc(OC)cc(OC)c4)n3n2)cc1` stands inactive: 94%.
Under `CC(C)N1CCc2nc(SCC(=O)Nc3cccc(F)c3)[nH]c(=O)c2C1` stands inactive: 86%; under `Nc1cc(N)nc(Sc2ncnc3ccccc23)n1`, inactive: 85%; under `CCOc1ccc(C(=O)OCc2cc(=O)n3cc(C)sc3n2)cc1`, inactive: 90%.
Under `O=C(O)CSCCc1ccccn1` stands inactive: 72%; under `CCCCCn1cc2c(c1-c1ccc(Cl)cc1)c(=O)n(C)c(=O)n2C`, inactive: 84%.
For the compound `COc1ccc2c(c1)C=C(C(=O)NCc1cc(Br)ccc1OC)CO2`, the survival is inactive: 73%.
With `CCOC(=O)C1CCCN(S(=O)(=O)c2ccc3[nH]c(=O)oc3c2)C1` (stereo unspecified), the survival is inactive: 84%.
With `COc1ccccc1NC(=O)c1sc2ncn(Cc3ccccc3Cl)c(=O)c2c1C`, the survival is inactive: 99%.

These data come from PubChem BioAssay AID463173 (ICCB-Longwood Screening Facility, Harvard Medical School, 2010).
